This note sets out measurements from PubChem BioAssay AID1963872 (Molecular Pharmacology Branch, DTP, NCI, 2024).

This assay has as its system KRAS patient-derived spheroids with HUVEC/MSC, viability. The assay is described as follows: Anticancer human tumor 519858-162-T-J1-PDC patient-derived colon adenocarcinoma cell line growth inhibition [KRAS2]. The following applies: for viability, T/C: stronger effect = lower value; for IC50: compound alone. The source says:
Multicellular complex tumor spheroid response to RAS pathway inhibitors in combination with a targeted agents in patient-derived cell lines with oncogenic KRAS variants from multiple cancer types
A high-throughput screen of multi-cell type tumor spheroids was designed to identify active combinations of targeted small molecules and KRAS pathway inhibitors. Complex spheroids include a stromal component modeled by human endothelial cells (HUVEC) and fibroblasts modeled by human mesenchymal stem cells (MSCs). The concentration ranges selected for each drug and investigational agent were based upon clinically achievable concentrations if the clinical Cmax of the agent was known.
Compounds. The drugs and investigational agents: BI-3406 (NSC825286), BAY-293 (NSC824723), batoprotafib (TNO155; NSC825523), sotorasib (AMG 510; NSC818433), MRTX1257 (NSC819558), elimusertib (BAY 1895344; NSC800525), molibresib (GSK525762; NSC774829), temuterkib (LY3214996; NSC803410), venetoclax (NSC766270), alisertib (NSC759677), olaparib (NSC753686), talazoparib (NSC767125), erdafitinib (NSC781556), ipatasertib (NSC767898), cabozantinib (NSC761068), nintedanib (NSC756659), abemaciclib (NSC768073), docetaxel (NSC628503), trametinib (NSC758246), and sapanisertib (NSC764658) were obtained from the National Cancer Institute (NCI) Developmental Therapeutics Program Chemical Repository. The FDA-approved anticancer drug set is available from the Developmental Therapeutics Program. […] The stock solutions were prepared in dimethyl sulfoxide (DMSO, Sigma-Aldrich, St. Louis, MO, cat. D2650) at 800-fold the tested concentration and stored at -70 degrees C prior to their use. All drugs and investigational agents were tested over a range starting from a high concentration at or near the clinical Cmax and decreasing in half-log increments. If the clinical Cmax for an agent had not been determined, the highest concentration tested was 10 microM.
Cell Culture. All cells were maintained in an incubator at 37 degrees C and 5% CO2 with 95% humidity. The PDC lines were cultured according to standard operating procedures established by the NCI PDMR (https://pdmr.cancer.gov/sops/default.htm). Briefly, all PDCs were thawed and cultured in Matrigel-coated flasks prepared with a working solution of 1X Ham's F-12 nutrient mix, without supplementation (Invitrogen, Waltham, MA, cat. 11765054), 100 U/mL penicillin-streptomycin (Invitrogen, cat. 15140122), and 2.5% Matrigel (Corning Inc., Corning, NY, cat. 354248) for the first three passages. All PDCs were cultured in complete DMEM/F-12 media containing advanced DMEM/F-12 (Invitrogen, cat. 12634028), 4.9% defined fetal bovine serum, heat inactivated (HyClone Laboratories Inc., Logan, UT, cat. SH30070.03HI), 389 ng/mL hydrocortisone (Sigma-Aldrich, cat. H4001), 9.7 ng/mL human EGF recombinant protein (Invitrogen, cat. PHG0313), 23.4 microg/mL adenine (Sigma-Aldrich, cat. A2786), 97.3 U/mL penicillin-streptomycin (Invitrogen, cat. 15140122), 1.9 mM L-glutamine (Invitrogen, cat. 25030081), and 9.7 microM Y-27632 dihydrochloride (Tocris Bioscience, Bristol, United Kingdom, cat. 1254). The PDCs were cultured in complete DMEM/F12 media without 9.7 microM Y-27632 dihydrochloride for at least two passages prior to the screen. The established cell line HOP-62 was cultured in RPMI 1640 medium, HEPES (Invitrogen, cat. 22400105) with 10% defined fetal bovine serum (HyClone Laboratories Inc., cat. SH30070.03) and 2 mM L-glutamine (Invitrogen, cat. 25030081). The pooled donor HUVEC were cultured in endothelial cell growth medium 2 (PromoCell, Heidelberg, Germany, cat. C-22011) and the hMSC were cultured in mesenchymal stem cell growth medium 2 (PromoCell, cat. C-28009). For all experiments, HUVEC and hMSC were used at passages </=5, while the malignant cell lines were used at passages </=15. […]

Certain results were filed several times, with different values. The list is limited to them. An entry can have further records. Values given together are repeats (runs, samples, wells, individuals or studies). Signs of the kind (2×) stand for listed records that agree. Bounds are passed on as bounds.
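Also: compound exposure lasted seven days before readout.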

As usually defined, the viability, T/C is the ratio of treated to control. Take `COc1cc(Nc2ncc3c(n2)-c2ccc(Cl)cc2C(c2c(F)cccc2OC)=NC3)ccc1C(=O)O`: the viability, T/C runs as follows: (compound alone 0.0316 µM) 101, 104, 73.1, 97.5, 96.4%; (compound alone 0.316 µM) 90.8, 104, 81.5, 70.1, 85.8%; (compound alone 1 µM) 86.6, 74, 92.6, 83.2, 56.9%; (compound alone 3.16 µM) 105, 101, 65.5, 113, 73.6%; (compound alone 10 µM) 112, 119, 105, 88.6, 69.9%.
In the case of `O=C(c1cc(Cc2n[nH]c(=O)c3ccccc23)ccc1F)N1CCN(C(=O)C2CC2)CC1`, the viability, T/C is, setting by setting: (compound alone 0.0316 µM) 85.8, 72.1, 110, 66.3, 93%; (compound alone 0.1 µM) 76.9, 91.2, 101, 105, 102%; (compound alone 0.316 µM) 84, 89.4, 89.9, 73, 112%; (compound alone 1 µM) 78.2, 86, 115, 83.5, 76.6%; (compound alone 3.16 µM) 80.3, 110, 103, 140, 116%; (compound alone 10 µM) 89.4, 79, 122, 88.3, 107%.
For `CC(=O)OC12COC1CC(O)C1(C)C(=O)C(O)C3=C(C)C(OC(=O)C(O)C(NC(=O)OC(C)(C)C)c4ccccc4)CC(O)(C(OC(=O)c4ccccc4)C21)C3(C)C` (stereo not given), the viability, T/C reads like this: (compound alone 0.0316 µM) 98.8, 73.3, 87.5, 95, 102%; (compound alone 0.316 µM) 114, 94.6, 100, 123, 126%; (compound alone 1 µM) 64.1, 87.8, 72.2, 89.3, 85.5%.
Broadly, the IC50 is the concentration that gives 50% inhibition. For `CC1COCCN1c1cc(-c2ccnn2C)c2ccnc(-c3ccn[nH]3)c2n1` (stereo not given), the IC50 is listed as 2.45 µM, 1.3 µM, 1.91 µM, > 3.16 µM, 2.36 µM. Moreover, the viability, T/C (compound alone 0.1 µM) was 86.7, 67.2, 81.2, 62.8, 101%. In addition, the viability, T/C (compound alone 0.316 µM) is listed as 101, 77.9, 86.3, 59.5, 74.9%. Further, the viability, T/C (compound alone 1 µM) is recorded as 67.3, 50.6, 69.6, 30.1, 66.7%. Further, the viability, T/C (compound alone 3.16 µM) is recorded as 45.1, 37.2, 34.7, 66.9, 44.5%.
In the case of `COc1cc2nc(C)nc(NC(C)c3cc(N)cc(C(F)(F)F)c3)c2cc1OC1CCOC1` (stereo not given), the viability, T/C is 91.5, 67.3, 111, 79.7, 85.7, 80.2, 79.5, 81.9, 82.4, 84.2, 95.3, 77.1, 117, 76, 86.6, 88.8, 97.6% (compound alone 0.1 µM); 96, 70.9, 95.4, 51.3, 71.6, 81, 81.2, 89.1, 88.7, 61.8, 63.9, 59.6, 90.9, 63.2, 79.9, 77.7, 67.5% (compound alone 0.316 µM); 77.9, 76.6, 79.1, 42.1, 54.4, 71.1, 73.2, 82.2, 58.5, 71.2, 92.1, 71.7, 70.6, 65.2, 89.1, 65.6, 62.5% (compound alone 1 µM); 94.2, 68.2, 61.2, 51.1, 49, 70.8, 63, 82.8, 71.8, 66.3, 79.1, 49.8, 66.9, 53.2, 62.2, 56.6, 85.5% (compound alone 3.16 µM); 82.5, 79, 72.6, 48.9, 61.5, 73.9, 70, 84.4, 97, 69.4, 46.8, 51, 68.5, 30.5, 68.6, 63.4, 67.7% (compound alone 10 µM). Besides, under “run of 07/12/2021”, the IC50 is > 10 µM and 393 nM.
On to `CNCc1ccccc1-c1csc(C(C)Nc2nc(C)nc3cc(OC)c(OC)cc23)c1` (stereo not given), for which the viability, T/C is 62.5, 64.2, 89.8, 87, 69.2, 90.8, 85.4, 88.2, 87.4, 69.8, 89.5, 73.9, 85.7, 66.2, 81.5, 85, 90.3% (compound alone 0.1 µM); 75.8, 86.6, 73.6, 78.6, 85.3, 86.7, 98.6, 82.5, 79.9, 80, 77.4, 67.7, 72.7, 64.2, 98.8, 85.9, 76.5% (compound alone 0.316 µM); 74.2, 71.9, 105, 87.4, 88.6, 83.6, 82.3, 72.2, 63.4, 89.5, 71.3, 72, 64.8, 53.4, 70.8, 77.8, 65.4% (compound alone 1 µM); 78.7, 76, 69, 73.6, 59.7, 67.2, 35.6, 63.5, 45.2, 70, 65.7, 49.9, 38.8, 50.8, 51.6, 42, 55% (compound alone 3.16 µM); 79.5, 0.37, 0.72, 0.66, 0.41, 0.4 (2×), 0.35, 0.61, 0.38, 0.59, 2.48, 0.99, 18.9, 0.19, 0.68, 12.9% (compound alone 10 µM). Moreover, the IC50 (run of 07/12/2021) is > 10 µM, 4.64 µM, 4.36 µM, 4.59 µM, 3.82 µM, 4.23 µM.
As for `Cn1ncnc1[C@H]1c2n[nH]c(=O)c3cc(F)cc(c23)N[C@@H]1c1ccc(F)cc1`, the viability, T/C runs as follows: (compound alone 0.000316 µM) 96.2, 78, 98.2, 78.3, 108%; (compound alone 0.001 µM) 102, 77.9, 80.7, 82.1, 111%; (compound alone 0.0316 µM) 88.1, 78.2, 86.4, 77.2, 106%; (compound alone 0.1 µM) 72.3, 65, 96.2, 91.3, 90.4%.
